Test results taken from the supplement of paper PMC4967469.
IC50 is the fitted dose that halves viability relative to control wells, and lower means more sensitive; fits outside the tested doses are given as limits. AUC is the area under the same curve over the 256-fold range up to the top dose, as a fraction; it is 1 without any effect and falls as sensitivity rises. A top dose marked as inferred comes from the curve model; the source does not state it. For part of these data: Drugs with an entry number were screened twice under separate entries, and the two screens often disagree.

How the values were obtained:
Assay in all cases: Viability of human cancer cell lines after 72 h of drug (GDSC screen)
[1] = compound: Cc1cc(N2CCOCC2)cc2[nH]c(-c3c(NC[C@@H](O)c4cccc(Cl)c4)cc[nH]c3=O)nc12 [BMS-536924]
Protocol: (§1)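 Human cancer cell lines in 384-well plates, medium with 10% serum, drug for 72 h over a 256-fold dose range (nine 2-fold or five 4-fold steps up to the top dose). Adherent lines were fixed and stained with the nucleic acid dye Syto60, suspension lines read with resazurin; signal relative to control wells, capped at 0 and 100%. One two-parameter sigmoid per drug and line, fitted in a mixed model over all curves with the slope shared within a line.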

[2] = compound: O=C(c1cc(Cc2n[nH]c(=O)c3ccccc23)ccc1F)N1CCN(C(=O)C2CC2)CC1 [Olaparib]
Protocol: as §1

[3] = compound: O=C1NC(=O)c2c1c(-c1ccccc1Cl)cc1[nH]c3ccc(O)cc3c21 [Wee1 inhibitor 681640]; conditions: top dose 2 µM; top dose inferred
Protocol: as §1

[4] = compound: CNC(=O)c1ccc(Nc2cc(Nc3ccccc3S(=O)(=O)C(C)C)c3cc[nH]c3n2)nc1 [HG-5-113-01]; conditions: top dose 10 µM; top dose inferred
Protocol: as §1

[5] = compound: COc1cc(-c2nn([C@H]3CC[C@H](N4CCN(C(C)=O)CC4)CC3)c3ncnc(N)c23)ccc1NC(=O)c1cc2ccccc2n1C [A-770041]; conditions: top dose 5.12 µM; top dose inferred
Protocol: as §1

[6] = compound: CC(C)=CC[C@@H](O)C1=CC(=O)c2c(O)ccc(O)c2C1=O [Shikonin]; conditions: top dose 16 µM; top dose inferred
Protocol: as §1

[7] = compound: CCNc1cc(NC2CCC(O)CC2)nc(Nc2ccc3c(ccn3Cc3ccccc3)c2)n1 [CGP-082996 (CINK4)]; conditions: top dose 5.12 µM; top dose inferred
Protocol: as §1

[8] = compound: COc1cc(N2CCN(C)CC2)ccc1Nc1ncc2c(n1)N(C)c1ccccc1C(=O)N2C [XMD8-85]; conditions: top dose 8 µM; top dose inferred
Protocol: as §1

[9] = compound: NC(=O)c1ccc(N(C(N)=O)c2c(F)cccc2F)nc1-c1ccc(F)cc1F [VX-702]; conditions: top dose 2 µM; top dose inferred
Protocol: as §1

[10] = compound: Cc1cccc(-c2[nH]c(C(C)(C)C)nc2-c2ccc3nccnc3c2)n1 [SB-525334]; conditions: top dose 20 µM; top dose inferred
Protocol: as §1

[11] = compound: Cc1ccc(-n2nc(C(C)(C)C)cc2NC(=O)Nc2ccc(OCCN3CCOCC3)c3ccccc23)cc1 [BIRB 0796]; conditions: top dose 10 µM; top dose inferred
Protocol: as §1

[12] = top dose 4 µM, screen: GDSC drug entry 1091, top dose inferred
[13] = top dose 5.12 µM, screen: GDSC drug entry 62
[14] = top dose 5 µM, screen: GDSC drug entry 1017, top dose inferred
[15] = top dose 10 µM, screen: GDSC drug entry 1495

Cell Line | AUC [1, 12] | IC50 [1, 12] [µM] | AUC [1, 13] | IC50 [1, 13] [µM] | AUC [2, 14] | IC50 [2, 14] [µM] | AUC [2, 15] | IC50 [2, 15] [µM] | AUC [3] | IC50 [3] [µM] | AUC [4] | IC50 [4] [µM] | AUC [5] | IC50 [5] [µM] | AUC [6] | IC50 [6] [µM] | AUC [7] | IC50 [7] [µM] | AUC [8] | IC50 [8] [µM] | AUC [9] | IC50 [9] [µM] | AUC [10] | IC50 [10] [µM] | AUC [11] | IC50 [11] [µM]
ALL-SIL (T-cell leukaemia, suspension) | 0.809 | 1.74 | 0.644 | 0.754 | 0.981 | > 5 | 0.963 | > 10 | 0.964 | > 2 | 0.541 | 0.796 | 0.376 | 0.154 | 0.374 | 0.474 | 0.89 | 4.46 | 0.888 | 6.86 | 0.989 | > 2 | 0.909 | > 20 | – | –
BB65-RCC (kidney, adherent) | 0.924 | > 4 | 0.865 | > 5.12 | 0.977 | > 5 | 0.956 | > 10 | – | – | 0.781 | 4.83 | 0.847 | 4.64 | 0.493 | 0.957 | 0.938 | > 5.12 | 0.982 | > 8 | 0.955 | > 2 | 0.968 | > 20 | – | –
C2BBe1 (large intestine, adherent) | 0.915 | > 4 | 0.819 | 3.44 | 0.967 | > 5 | 0.984 | > 10 | – | – | 0.857 | 9.99 | 0.627 | – | 0.473 | 0.833 | 0.98 | > 5.12 | 0.985 | > 8 | 0.972 | > 2 | 0.839 | 16.3 | 0.918 | > 10
CL-11 (large intestine, adherent) | 0.849 | 3.61 | 0.948 | > 5.12 | 0.976 | > 5 | 0.979 | > 10 | – | – | 0.772 | 4.37 | 0.98 | > 5.12 | 0.768 | 6.74 | 0.987 | > 5.12 | 0.983 | > 8 | 0.956 | > 2 | 0.982 | > 20 | 0.985 | > 10
ES3 (Ewing sarcoma, adherent) | 0.751 | 1.38 | 0.902 | > 5.12 | – | – | 0.799 | 5.11 | 0.941 | > 2 | 0.616 | 1.32 | 0.966 | > 5.12 | 0.423 | 0.607 | 0.897 | > 5.12 | 0.985 | > 8 | – | – | 0.712 | 5.16 | 0.976 | > 10
IST-MES1 (mesothelioma, adherent) | 0.899 | > 4 | 0.644 | 0.804 | – | – | 0.903 | > 10 | – | – | 0.813 | 5.45 | 0.675 | 0.987 | 0.597 | 1.85 | 0.981 | > 5.12 | 0.877 | > 8 | – | – | 0.958 | > 20 | – | –
K-562 (chronic myeloid leukaemia, suspension) | – | – | – | – | – | – | – | – | 0.963 | > 2 | 0.694 | 2.15 | 0.555 | 0.45 | – | – | 0.874 | 4.72 | 0.929 | > 8 | – | – | – | – | – | –
LB996-RCC (kidney, adherent) | 0.826 | 2.97 | 0.634 | 0.8 | – | – | 0.925 | > 10 | 0.98 | > 2 | 0.722 | 2.98 | 0.317 | 0.0897 | 0.758 | 6.4 | 0.98 | > 5.12 | 0.831 | 6.21 | – | – | 0.979 | > 20 | 0.979 | > 10
LB1047-RCC (kidney, adherent) | 0.787 | 1.97 | 0.643 | 0.839 | 0.983 | > 5 | 0.971 | > 10 | – | – | 0.618 | 1.38 | 0.349 | 0.115 | 0.353 | 0.372 | 0.857 | 5.01 | 0.931 | > 8 | 0.983 | > 2 | 0.975 | > 20 | 0.894 | > 10
LB2241-RCC (kidney, adherent) | 0.804 | 2.29 | 0.968 | > 5.12 | 0.978 | > 5 | 0.922 | > 10 | – | – | 0.645 | 1.66 | 0.893 | > 5.12 | 0.542 | 1.32 | 0.971 | > 5.12 | 0.842 | 6.59 | 0.974 | > 2 | 0.982 | > 20 | – | –
LNCaP-Clone-FGC (prostate, adherent) | 0.937 | > 4 | 0.965 | > 5.12 | – | – | 0.932 | > 10 | 0.952 | > 2 | 0.834 | 7.86 | 0.963 | > 5.12 | 0.919 | > 16 | 0.968 | > 5.12 | 0.977 | > 8 | – | – | 0.651 | 3.5 | 0.973 | > 10
LOXIMVI (melanoma, semi-adherent) | 0.879 | 3.33 | 0.897 | > 5.12 | – | – | 0.779 | 3.64 | 0.902 | > 2 | 0.747 | 2.9 | 0.911 | > 5.12 | 0.421 | 0.625 | 0.989 | > 5.12 | 0.984 | > 8 | – | – | 0.968 | > 20 | 0.989 | > 10
